Consider 167 variants from the RNAGym collection of RNA variant scans (doi:10.1093/nar/gkz1192).

Read counts are not given, so values of variants with three or more changes are uncertain.

B1: CPEB3 Ribozyme (parent)
chain: UAACAGGGGGCCACAGCAGAAGCGUUCACGUCGCAGCCCCUGUCAGAUUCUGGUGAAUCUGCGAAUUCUGCUGUAUAUCUC

This data set covers variants of B1. Put plainly: self-cleavage, relative activity (ratio to wild type); higher = more cleavage; in vitro, sequencing. The gist of the method: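 CPEB3 self-cleaving ribozyme mutant libraries were made by rounds of error-prone PCR, barcoded, and transcribed in vitro with T7 RNA polymerase for 5 hours at 37°C. Cleavage occurred during transcription and a 15 min DNase I step before EDTA stop. RNAs were reverse transcribed with template switching and Illumina-sequenced, with DNA sequencing mapping barcodes to variants. Relative activity is the variant's cleaved/total read fraction divided by wild type's (minimum 5 reads), averaged across three batches.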
As to C12U A13U U26C U41C U49C A64G U76A, the self-cleavage is 0.09.

As for C12G A13U A15U U49C, the self-cleavage was found to be 0.08. Under C12U U25C U31A U54C A57G stands 0.23. In the case of C12U A28G A77U it was 1.24; in that of C11U U54A U80C, 0.62; in that of C12A A21G U43A U54A A65U U80A, 0.23. For C12G A18U U26A A45U A64C U76C, the self-cleavage was found to be 0.05.

Regarding C12A A35G U72C, the self-cleavage came to 1.24. Under C12G U26C U54C A56G U69A stands 0.07; under C12A U41A U54C C59G U74C, 0.1; under C12U A15U U31C A75U, 0.98.

Take C12G A13G A28G A35U A45U U80G: the self-cleavage turned out to be 0.03.

Turning to C12A U54A A64U U67A U69G, the self-cleavage is 0.44. Consider C12A A15G A18G U72C A75U U80A, for which the self-cleavage was found to be 1.15.

As to C12U A21G U31C U41A, the self-cleavage was 0.07. In the case of C12G U25C A35G A65U it was 0.07. In the case of C12U U25A U26C A28G U78C it was 0.06. In the case of C12G U43C U54G it was 0.24; in that of C12G G19A C29A U31G U51C A77G U80C, 0.03.

As for C12U A18G A20G G70A, the self-cleavage was 0.38.

With C12U A13G C14A U25C A65U U80C, the self-cleavage was determined as 0.25.

As to C12A A18G A21G, the self-cleavage was 0.57. Under C12U A20G A35U A47G U67A stands 0.35; under C12G A13G U26C U31C, 0.59; under C12A U54C U60G A65C, 0.14. Under C12G C38U U60A U72C stands 0.12.

For the variant C12G C38U U72C, the self-cleavage was determined as 0.33. Consider C12U C17U A28U A45C, for which the self-cleavage came out at 0.15. For C12G A15U A45U, the self-cleavage was 0.21. Turning to C12U A18G G19C C23U U66C, the self-cleavage amounted to 0.17. In the case of C12A A15G C32A it was 0.31; in that of C12A A35G U41A A47C U80C, 0.11; in that of C12A U25C A28U G33A A35G A57C U72A, 0.11. C12U A21G U41A U58A: the self-cleavage came to 0.1.

Take C12A A21U U26A C29G U58A U69A: the self-cleavage was determined as 0.05. In the case of C12U U25A A45U U49C A65G it was 0.13; in that of C12A U31A U67G U78C, 0.14; in that of C12G A13U U25C C40A U49C A56U U78G, 0.05. Under C12A U25C U58A U74C stands 0.13; under C12A U54C A56G U76C, 1.14; under C12G A18U A45G U49A U69C U72G U76C, 0.05. Under C12U A15G A20C U80C stands 0.42; under C12U A18U U69A, 1.28. On to C12U A18G G52U U58C A64G U69C, for which the self-cleavage is 0.72.

Regarding C12G A13U A20G U43C, the self-cleavage was 0.2. Regarding C12U G16C G24A U48A G52C, the self-cleavage is 0.05.

C12U U25C U26A C62U U72C: the self-cleavage worked out at 0.07.

Consider C12U A20U G61U A65G, for which the self-cleavage came to 0.12. On to C12U G24U G33A, for which the self-cleavage was 0.23. As for C12U A20G A28U, the self-cleavage is 1.07.

For C12U A13G C27G U31C C62G A65G U74C, the self-cleavage came out at 0. In the case of C12A U25C A45U U51A it was 0.09. For the variant C12G C38U U49C U80C, the self-cleavage was determined as 0.05. With C12U A15G U54C U72A, the self-cleavage was 0.33.

For C12U A20U A21G U26A C32A U66C, the self-cleavage is 0.08. With C12U A15G C23A U54A U58A A77U, the self-cleavage was determined as 0.19. As to C12U A13G C27G C62G U74C, the self-cleavage worked out at 0.22. Take C12A U25C U26C U48C A57G C59U: the self-cleavage stood at 0.21. With C12U A18G G33A, the self-cleavage turned out to be 0.06.

In the case of C12U A18G U78C, the self-cleavage stood at 0.45. Under C12U C23U U26A A35U U41C U58A stands 0.04.

On to C12U A45G G63C, for which the self-cleavage was found to be 1.16. As for C12G A13G A45U G55A U69A, the self-cleavage worked out at 0.12. For the variant C12A U31A U43C, the self-cleavage was 0.25.

As to C12G A21U C40A U60A C79A, the self-cleavage was determined as 0.04. Take C12G A13G C23G A56G U58C U74C U80C: the self-cleavage turned out to be 0.07. For C12U C17U A20U U54C A56G, the self-cleavage came out at 0.16.

C12A A13U A15U A21U U49C U69C: the self-cleavage stood at 0.05. For the variant C12A A13G A47G A65G G70U U78C, the self-cleavage was found to be 0.23. In the case of C12U G63A U80C it was 1.05; in that of C12U G16C U25A U41A U49C, 0.26; in that of C12A A15U G30C U51A G52C, 0.07. Under C12A A13G U43A A47G U67G stands 0.05; under C12U A18G C40U, 0.61. Under C12G U25G U80C stands 0.4; under C12G C29U U41C U48C U49C U67C, 0.03. On to C12G U54C A56G A64U U78C, for which the self-cleavage is 0.07. Take C12U A28G C34U C40A A45U A56U: the self-cleavage was 0.03. Under C12G A35G A65G stands 0.28; under C12U G33C A45G A56U U72A U76C, 0.04; under C12G A20G C40A A64U, 0.05. Take C12U A15G A20G A47G U49A U51A U58C: the self-cleavage was determined as 0.1. Consider C12A A18U U54C U58A, for which the self-cleavage was 0.15.

Take C12A C37G A56G U67C U72A: the self-cleavage was determined as 0.05. Under C12U U25A U26C A56C A65G U72A stands 0.05; under C12A C44A U72A, 0.19; under C12A A45U A47G U80A, 0.44.

C12U A20U A45U A57G: the self-cleavage worked out at 0.09. In the case of C12A A15U U43C U72C it was 0.87. Under C12U G19U U25A A64U stands 0.05; under C12U A35G U69A U76C, 0.74; under C12U A21U A45G A75U A77G, 0.45.

As to C12A U26A G33A U54A U72A A77C, the self-cleavage turned out to be 0.1. Under C12U U25A C44U A65G stands 0.08. Consider C12U A28G G63C, for which the self-cleavage was 0.3. As for C12A A18U U25C, the self-cleavage came to 0.13. For the variant C12G U26A U51G, the self-cleavage amounted to 0.24. Under C12U A35U U49C U69C stands 0.12; under C12U A15U U54C A65G C71U C79U, 0.17. In the case of C12A U31A C62A U72C it was 0.17; in that of C12U A35G A56G A64G A77U, 1.07. Under C12A A13G A57G stands 0.49; under C12A U49C A56G, 1.18. For the variant C12U U25C U41A U51G U66C, the self-cleavage was determined as 0.08. On to C12A A18U U43A U69A U80C, for which the self-cleavage amounted to 1.22. C12A U26C U67C U69A: the self-cleavage came out at 0.06. In the case of C12G U25A U43C U69A it was 0.04. Under C12U A15G A47G U76A stands 0.9.

For C12U A35G U60G A75U, the self-cleavage is 0.83. In the case of C12G A13G A28C A45G U74C, the self-cleavage came out at 0.08. In the case of C12A U26C U54C A56U it was 0.16; in that of C12U A47G G63U U78C, 1.14. Under C12U G61A U76C stands 1.09. Under C11U U60C U66C stands 0.26.

On to C12G C29U A35U U48A U69C U74A U78C, for which the self-cleavage was found to be 0.05. Under C12G A20G A56U U67A U78C stands 0.1; under C12U A13G U25C C62U A65U, 0.13. Under C12U A15C A28U U78C stands 0.87. For the variant C12U A13G A20G U25C U31A, the self-cleavage amounted to 0.03. In the case of C12U A18G U26C G33A it was 0.41; in that of C12G G24A U43A A65G, 0.06; in that of C12A A35G U76C, 0.7. In the case of C12U A13U U72C it was 1.25; in that of C12U A20G A45G U69A, 0.48. Under C12U A20U A35U U69A U76C stands 0.07; under C12G U78C U80C, 0.38; under C12A U43C U72C U78C, 0.77.

With C12A C14U A15U U72C, the self-cleavage was 1.11. Under C12U A18U U25C A64U stands 0.05; under C12U A18G A35G A64G U69C, 1.31; under C12G A21G C34G C40A U69A, 0.04.

Consider C12G G16C A45G U49C U72A U76A A77U, for which the self-cleavage stood at 0.06. Regarding C12U A20G U43A U54C U60A U72C, the self-cleavage turned out to be 0.45. In the case of C12U A21G A56U A57G it was 0.48; in that of C12G U51C A77U, 0.62; in that of C12A A21G C40U A47U U49C, 0.18. In the case of C12G A13U G36U A75G it was 0.2; in that of C12G A35U U51C A56G, 0.18.

In the case of C12U A21G G36A C40U U43G, the self-cleavage worked out at 0.11.

With C12U A15U U31A C37G U43A A47G U51C, the self-cleavage came to 0.07. C12G U58C U66C: the self-cleavage came to 0.18.

C12U C17U U54A U78C: the self-cleavage was determined as 1.01. Under C12G A20G U51C U69A U74A stands 0.05. As for C12U A35G U51A A64U U74A, the self-cleavage turned out to be 0.87. In the case of C12U A18G U67C it was 0.16; in that of C12A A28G A45G U48C C62U U69C U76A, 0.08. C12A A45G U48C C62U A64G U69C U76A: the self-cleavage stood at 0.18. In the case of C12U A13G A21G U72C it was 0.21; in that of C12U C14U A20U A45G U60C, 0.62.

Consider C12U C38G A45G G70A A77G, for which the self-cleavage came to 0.04. For C12A U26C A28U U51C U67C A77U, the self-cleavage came out at 0.06. In the case of C12U A21G U26A A56C A57G U69A U80A it was 0.25; in that of C12A A28U C39A U60A A75U, 0.18. As to C12U A28U U31C C68A, the self-cleavage was determined as 0.14. In the case of C12G C44G A57G it was 0.07; in that of C12A A47G U48C, 0.21. Under C12G U54A U80C stands 0.64; under C12U A20U G36A U41C U67A, 0.36. With C12U A35G U48A U60G, the self-cleavage is 0.2. On to C12U G24A U58C U69G U72A, for which the self-cleavage was 0.05.

In the case of C12A A15U A21G A45U U72C, the self-cleavage turned out to be 0.23. In the case of C12A A18G A56G it was 0.48; in that of C12G U43C U48C C59A C71G U76C, 0.03; in that of C11U U51C U58A A75G, 0.08. As to C12U A13G A28G U31C, the self-cleavage was 0.24. In the case of C12U G24A U49C U69C it was 0.04; in that of C12A G19U A28U A64U U67A U69G A75G, 0.04.
